# The full ranking holds about 33,000 sequences; the median of “E-score (-0.5 to 0.5)” is about -0.053, and the highest 2% start at about 0.37. The list shows a part of the results.
# Target: Hap1 (UniProt P0CE41)
# Assay: PBM E-score (8-mer binding enrichment) (E-score (-0.5 to 0.5)); higher = stronger / more preferred TF binding; most listed sequences are background and not binding sites
# Conditions: protein concentration: 200 nM; construct: GST-DNA-binding domain
# How it was run: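 PURExpress in vitro transcription/translation supplied GST-tagged yeast transcription factors, either full-length or DNA-binding domain. Applied at about 100-200 nM to universal all-10-mer Agilent arrays double-stranded by primer extension, the bound protein was detected with fluorescent anti-GST. E-scores, modified Wilcoxon-Mann-Whitney statistics, were given by the Universal PBM Analysis Suite to ungapped eight-base words pooled with their reverse complements after masliner normalisation.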
# Sequence of UniProt P0CE41 (P0CE41 whole entry): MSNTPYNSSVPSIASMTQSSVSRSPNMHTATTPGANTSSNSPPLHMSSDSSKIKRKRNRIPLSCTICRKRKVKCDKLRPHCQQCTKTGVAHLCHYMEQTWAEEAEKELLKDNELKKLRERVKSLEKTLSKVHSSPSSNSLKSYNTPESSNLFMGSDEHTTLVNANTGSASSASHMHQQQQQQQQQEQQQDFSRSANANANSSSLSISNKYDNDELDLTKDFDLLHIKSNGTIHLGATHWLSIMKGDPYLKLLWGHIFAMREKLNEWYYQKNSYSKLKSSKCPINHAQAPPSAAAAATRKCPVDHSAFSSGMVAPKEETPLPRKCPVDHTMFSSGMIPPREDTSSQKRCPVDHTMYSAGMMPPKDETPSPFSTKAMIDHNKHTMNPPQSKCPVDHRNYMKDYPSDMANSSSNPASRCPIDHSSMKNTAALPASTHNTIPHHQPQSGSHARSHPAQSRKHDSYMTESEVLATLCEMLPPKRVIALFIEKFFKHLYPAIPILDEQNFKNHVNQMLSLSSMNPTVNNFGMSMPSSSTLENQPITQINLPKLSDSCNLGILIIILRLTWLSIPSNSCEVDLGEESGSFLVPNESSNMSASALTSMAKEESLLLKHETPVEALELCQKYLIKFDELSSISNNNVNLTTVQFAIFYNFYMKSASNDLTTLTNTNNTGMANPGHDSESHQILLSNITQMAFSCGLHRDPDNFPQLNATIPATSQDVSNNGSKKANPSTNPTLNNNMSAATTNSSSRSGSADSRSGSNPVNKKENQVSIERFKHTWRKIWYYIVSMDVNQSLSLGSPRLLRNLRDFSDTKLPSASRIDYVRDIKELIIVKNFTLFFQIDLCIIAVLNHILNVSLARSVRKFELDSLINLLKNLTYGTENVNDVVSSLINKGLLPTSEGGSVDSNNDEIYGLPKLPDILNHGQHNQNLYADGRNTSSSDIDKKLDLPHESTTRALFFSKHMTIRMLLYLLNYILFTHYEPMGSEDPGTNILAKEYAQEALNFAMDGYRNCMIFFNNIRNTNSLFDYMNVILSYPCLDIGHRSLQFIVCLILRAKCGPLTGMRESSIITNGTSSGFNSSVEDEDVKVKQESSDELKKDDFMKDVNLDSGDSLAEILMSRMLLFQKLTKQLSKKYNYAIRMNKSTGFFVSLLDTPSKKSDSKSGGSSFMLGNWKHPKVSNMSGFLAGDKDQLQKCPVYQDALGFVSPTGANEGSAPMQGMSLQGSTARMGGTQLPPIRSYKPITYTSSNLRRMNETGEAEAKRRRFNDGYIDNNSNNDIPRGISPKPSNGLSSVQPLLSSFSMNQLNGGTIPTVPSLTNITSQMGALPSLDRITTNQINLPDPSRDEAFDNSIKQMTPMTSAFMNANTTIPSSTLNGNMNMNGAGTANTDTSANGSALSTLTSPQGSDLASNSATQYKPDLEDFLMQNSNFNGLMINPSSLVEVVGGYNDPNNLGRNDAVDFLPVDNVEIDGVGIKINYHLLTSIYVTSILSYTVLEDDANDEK
row,Sequence,PBM E-score
1,CCGCCGAA,0.38
2,CTCGCCCC,0.0616
3,TAGTAAGA,-0.127
4,ATAATAAG,-0.0312
5,CGGCGGTC,0.244
6,CCTCACTC,-0.143
7,AGGCTAAC,-0.16
8,GTGTTGTA,-0.157
9,CAACACCC,-0.172
10,CAGTGTCC,0.0554
11,CCACCTTA,-0.00422
12,GTCAGGAA,-0.161
13,ATAGCTTG,-0.162
14,ACGCTGAT,-0.145
15,AACCGGCT,0.252
16,GTAAAATA,-0.0903
17,AATGAGCG,0.0776
18,CGATATCC,0.375
19,AATTGGTG,-0.185
20,GCGTCCAC,0.0208
21,CGTATAAC,0.0381
22,ACGGCGTC,0.141
23,GCTTAAAA,0.00391
24,CATTTCCA,-0.0971

row,Sequence,PBM E-score
1,ATACTGCC,-0.0351
2,CTCCATCC,-0.0736
3,GGTATGGA,0.03
4,AACAACCA,-0.195
5,ACGCGTAG,0.138
6,CATCACGG,0.107
7,ATACAAGA,-0.141
8,GGATCTAC,0.00203
9,AACTGACC,0.228
10,CGATGTAA,0.0913
11,CCCAATGA,-0.257
12,AAGGTGCT,-0.0594
13,TCGAAAGA,-0.114
14,CTAAGCAC,-0.141
15,GACTAGGC,-0.178
16,CCATCCTA,-0.103
17,CGGGCCAC,0.27
18,TAGAATCA,-0.0228
19,ACTAGTGA,-0.208
20,ATTAACCC,0.25
21,CTCCCTTA,-0.068
22,CCCATGTC,-0.0857
23,CACGGGAC,0.18
24,GCCCAAGC,0.0262

row,Sequence,PBM E-score
1,AATGCGAC,0.136
2,GCAGCCGC,0.0279
3,CTAAATTA,-0.0489
4,AGTAGCGC,0.0359
5,GCTTGGAC,-0.2
6,GGTCGCCA,0.00282
7,AAAACTTG,-0.199
8,CACTGTCC,-0.0124
9,CTGCAACC,-0.215
10,AACTGATA,-0.105
11,CATTTGAA,0.0136
12,CTCTCCGC,0.0772
13,CCCAGCCG,0.0905
14,GTACTTTA,-0.153
15,GTTAGTTA,0.0774
16,AATAGATG,-0.118
17,CGTGCTGC,-0.049
18,GCCGAGCC,0.346
19,ACACTCGA,-0.211
20,ATGACCGA,0.378
21,CTACCCGA,0.161
22,AGAGGCGG,-0.0563
23,AAACTCTG,-0.0642
24,CGGGCACC,0.185

row,Sequence,PBM E-score
1,AAAAGTTC,0.0472
2,ATTTTCTA,-0.124
3,GGTACCAA,0.0294
4,TAGTGAAA,-0.218
5,CGTACTAG,-0.263
6,GGACCTTA,0.245
7,CCCTAGGC,-0.148
8,AGGGTCGG,0.111
9,AGAGCACT,-0.0757
10,CGGGTATA,0.435
11,CCCTTGCG,-0.0607
12,ATGCGTAA,-0.0748
13,TATACCCA,-0.0183
14,CGCAAGTC,-0.0565
15,AGTGTATC,0.0169
16,AGTCCCCG,0.158
17,AGTGAGAT,-0.151
18,AATTGATC,-0.0111
19,GAAACACC,0.0567
20,CCGCTGGC,-0.00858
21,CATAAGGG,0.0768
22,GCCCACTA,-0.137

# — the supplement of paper PMC3334620
